Measurements reported in EP4674438A1 (Taiho Pharmaceutical Co., Ltd., dated 2024).

What follows are binders tested against T1, human CD138 protein (human, UniProt P18827 23-310) (assay: cell-based or functional assay).
T1 sequence: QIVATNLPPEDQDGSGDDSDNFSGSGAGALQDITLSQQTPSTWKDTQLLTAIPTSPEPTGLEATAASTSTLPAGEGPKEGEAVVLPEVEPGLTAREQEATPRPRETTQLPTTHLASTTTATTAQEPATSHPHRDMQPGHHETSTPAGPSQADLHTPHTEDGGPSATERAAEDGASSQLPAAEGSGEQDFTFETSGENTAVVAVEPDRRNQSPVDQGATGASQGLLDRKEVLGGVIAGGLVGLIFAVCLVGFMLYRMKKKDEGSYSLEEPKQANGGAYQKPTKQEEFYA

Binder | IC50 (ng/ml), cytotoxicity, BxPC-3 (CD138-positive), CellTiter-Glo 2.0 [ng/mL]
Antibody-drug conjugate 16 (ADC16) (antibody, human IgG1, kappa, MC-VC-PAB-MMAE after TCEP reduction; positions not given; average number of drugs bound to an antibody molecule 3.78) heavy: QVQLVQSGAEVKKPGSSVKVSCKASGYTFSNYWIEWVRQAPGQGLEWIGEILPGTGRTIYNEKFKGRATFTADISTSTAYMELSSLRSEDTAVYYCARRDYYGNFYYAMDYWGQGTLVTVSS[human IgG1 constant region not spelt out] light: DIQMTQSPSSLSASVGDRVTITCSASQGINNYLNWYQQKPGKAPKLLIYYTSTLQSGVPSRFSGSGSGTDYTLTISSLQPEDFATYYCQQYSKLPRTFGGGTKVEIKRTVAAPSVFIFPPSDEQLKSGTASVVCLLNNFYPREAKVQWKVDNALQSGNSQESVTEQDSKDSTYSLSSTLTLSKADYEKHKVYACEVTHQGLSSPVTKSFNRGEC | 40
Antibody-drug conjugate 17 (ADC17) (antibody, human IgG1, kappa, MC-VC-PAB-MMAE after TCEP reduction; positions not given; average number of drugs bound to an antibody molecule 7.91) heavy: QVQLVQSGAEVKKPGSSVKVSCKASGYTFSNYWIEWVRQAPGQGLEWIGEILPGTGRTIYNEKFKGRATFTADISTSTAYMELSSLRSEDTAVYYCARRDYYGNFYYAMDYWGQGTLVTVSS[human IgG1 constant region not spelt out] light: DIQMTQSPSSLSASVGDRVTITCSASQGINNYLNWYQQKPGKAPKLLIYYTSTLQSGVPSRFSGSGSGTDYTLTISSLQPEDFATYYCQQYSKLPRTFGGGTKVEIKRTVAAPSVFIFPPSDEQLKSGTASVVCLLNNFYPREAKVQWKVDNALQSGNSQESVTEQDSKDSTYSLSSTLTLSKADYEKHKVYACEVTHQGLSSPVTKSFNRGEC | 9

The binders below were run against T1, human CD138 protein (assay: flow cytometry on AsPC-1 cells (legend of Figure 1)).

Binder | binding result
Antibody 6 (antibody, human IgG1, kappa, Humanized, human IgG1 constant region; also called anti-CD138 antibody) heavy: QVQLVQSGAEVKKPGSSVKVSCKASGYTFSNYWIEWVRQAPGQGLEWIGEILPGTGRTIYNEKFKGRVTFTADESTSTAYMELSSLRSEDTAVYYCARRDYYGNFYYAMDYWGQGTLVTVSSASTKGPSVFPLAPSSKSTSGGTAALGCLVKDYFPEPVTVSWNSGALTSGVHTFPAVLQSSGLYSLSSVVTVPSSSLGTQTYICNVNHKPSNTKVDKKV[human IgG1 Fc with changes not spelt out] light: DIQMTQSPSSLSASVGDRVTITCSASQGINNYLNWYQQKPGKAPKLLIYYTSTLQSGVPSRFSGSGSGTDYTLTISSLQPEDFATYYCQQYSKLPRTFGGGTKVEIKRTVAAPSVFIFPPSDEQLKSGTASVVCLLNNFYPREAKVQWKVDNALQSGNSQESVTEQDSKDSTYSLSSTLTLSKADYEKHKVYACEVTHQGLSSPVTKSFNRGEC | binds
Antibody 3 (antibody, human IgG1, kappa, Humanized, human IgG1 constant region; also called anti-CD138 antibody) heavy: QVQLVQSGAEVKKPGSSVKVSCKASGYTFSNYWIEWVRQAPGQGLEWIGEILPGTGRTIYNEKFKGRATFTADISTSTAYMELSSLRSEDTAVYYCARRDYYGNFYYAMDYWGQGTLVTVSSASTKGPSVFPLAPSSKSTSGGTAALGCLVKDYFPEPVTVSWNSGALTSGVHTFPAVLQSSGLYSLSSVVTVPSSSLGTQTYICNVNHKPSNTKVDKKV[human IgG1 Fc with changes not spelt out] light: DIQMTQSPSSLSASVGDRVTITCSASQGINNYLNWYQQKPGKAPKLLIYYTSTLQSGVPSRFSGSGSGTDYTLTISSLQPEDFATYYCQQYSKLPRTFGGGTKVEIKRTVAAPSVFIFPPSDEQLKSGTASVVCLLNNFYPREAKVQWKVDNALQSGNSQESVTEQDSKDSTYSLSSTLTLSKADYEKHKVYACEVTHQGLSSPVTKSFNRGEC | binds
Antibody 4 (antibody, human IgG1, kappa, Humanized, human IgG1 constant region; also called anti-CD138 antibody) heavy: QVQLVQSGAEVKKPGSSVKVSCKASGYTFSNYWIEWVRQAPGQGLEWIGEILPGTGRTIYNEKFKGRVTFTADISTSTAYMELSSLRSEDTAVYYCARRDYYGNFYYAMDYWGQGTLVTVSSASTKGPSVFPLAPSSKSTSGGTAALGCLVKDYFPEPVTVSWNSGALTSGVHTFPAVLQSSGLYSLSSVVTVPSSSLGTQTYICNVNHKPSNTKVDKKV[human IgG1 Fc with changes not spelt out] light: DIQMTQSPSSLSASVGDRVTITCSASQGINNYLNWYQQKPGKAPKLLIYYTSTLQSGVPSRFSGSGSGTDYTLTISSLQPEDFATYYCQQYSKLPRTFGGGTKVEIKRTVAAPSVFIFPPSDEQLKSGTASVVCLLNNFYPREAKVQWKVDNALQSGNSQESVTEQDSKDSTYSLSSTLTLSKADYEKHKVYACEVTHQGLSSPVTKSFNRGEC | binds

Target: T1, human CD138 protein
Experiment: cell-based or functional assay
Remark: another data set of the same source

Binder | IC50 (ng/ml), cytotoxicity, Capan-1 (CD138-positive), CellTiter-Glo 2.0 [ng/mL]
Antibody-drug conjugate 8 (ADC8) (antibody, human IgG1, kappa, MC-VC-PAB-MMAE on cysteine sulfhydryls after TCEP reduction of hinge disulfide bonds; positions not given; DAR 7.9) heavy: QVQLVQSGAEVKKPGSSVKVSCKASGYTFSNYWIEWVRQAPGQGLEWIGEILPGTGRTIYNEKFKGRATFTADISTSTAYMELSSLRSEDTAVYYCARRDYYGNFYYAMDYWGQGTLVTVSSASTKGPSVFPLAPSSKSTSGGTAALGCLVKDYFPEPVTVSWNSGALTSGVHTFPAVLQSSGLYSLSSVVTVPSSSLGTQTYICNVNHKPSNTKVDKKV[human IgG1 Fc with changes not spelt out] light: DIQMTQSPSSLSASVGDRVTITCSASQGINNYLNWYQQKPGKAPKLLIYYTSTLQSGVPSRFSGSGSGTDYTLTISSLQPEDFATYYCQQYSKLPRTFGGGTKVEIKRTVAAPSVFIFPPSDEQLKSGTASVVCLLNNFYPREAKVQWKVDNALQSGNSQESVTEQDSKDSTYSLSSTLTLSKADYEKHKVYACEVTHQGLSSPVTKSFNRGEC | 17
Antibody-drug conjugate 9 (ADC9) (antibody, human IgG1, kappa, MC-VC-PAB-MMAE on cysteine sulfhydryls after TCEP reduction of hinge disulfide bonds; positions not given; DAR 7.8) heavy: QVQLVQSGAEVKKPGSSVKVSCKASGYTFSNYWIEWVRQAPGQGLEWIGEILPGTGRTIYNEKFKGRVTFTADISTSTAYMELSSLRSEDTAVYYCARRDYYGNFYYAMDYWGQGTLVTVSSASTKGPSVFPLAPSSKSTSGGTAALGCLVKDYFPEPVTVSWNSGALTSGVHTFPAVLQSSGLYSLSSVVTVPSSSLGTQTYICNVNHKPSNTKVDKKV[human IgG1 Fc with changes not spelt out] light: DIQMTQSPSSLSASVGDRVTITCSASQGINNYLNWYQQKPGKAPKLLIYYTSTLQSGVPSRFSGSGSGTDYTLTISSLQPEDFATYYCQQYSKLPRTFGGGTKVEIKRTVAAPSVFIFPPSDEQLKSGTASVVCLLNNFYPREAKVQWKVDNALQSGNSQESVTEQDSKDSTYSLSSTLTLSKADYEKHKVYACEVTHQGLSSPVTKSFNRGEC | 18
Antibody-drug conjugate 11 (ADC11) (antibody, human IgG1, kappa, MC-VC-PAB-MMAE on cysteine sulfhydryls after TCEP reduction of hinge disulfide bonds; positions not given; DAR 7.8) heavy: QVQLVQSGAEVKKPGSSVKVSCKASGYTFSNYWIEWVRQAPGQGLEWIGEILPGTGRTIYNEKFKGRVTFTADESTSTAYMELSSLRSEDTAVYYCARRDYYGNFYYAMDYWGQGTLVTVSSASTKGPSVFPLAPSSKSTSGGTAALGCLVKDYFPEPVTVSWNSGALTSGVHTFPAVLQSSGLYSLSSVVTVPSSSLGTQTYICNVNHKPSNTKVDKKV[human IgG1 Fc with changes not spelt out] light: DIQMTQSPSSLSASVGDRVTITCSASQGINNYLNWYQQKPGKAPKLLIYYTSTLQSGVPSRFSGSGSGTDYTLTISSLQPEDFATYYCQQYSKLPRTFGGGTKVEIKRTVAAPSVFIFPPSDEQLKSGTASVVCLLNNFYPREAKVQWKVDNALQSGNSQESVTEQDSKDSTYSLSSTLTLSKADYEKHKVYACEVTHQGLSSPVTKSFNRGEC | 31
Antibody-drug conjugate 12 (ADC12) (antibody, human IgG1, kappa, MC-VC-PAB-MMAE on cysteine sulfhydryls after TCEP reduction of hinge disulfide bonds; positions not given; DAR 7.9) heavy: QVQLVQSGAEVKKPGSSVKVSCKASGYTFSNYWIEWVRQAPGQGLEWIGEILPGTGRTIYNEKFKGRATFTADISTSTAYMELSSLRSEDTAVYYCARRDYYGNFYYAMDYWGQGTLVTVSS[human IgG1 constant region not spelt out] light: DIQMTQSPSSLSASVGDRVTITCSASQGINNYLNWYQQKPGKAPKLLIYYTSTLQSGVPSRFSGSGSGTDYTLTISSLQPEDFATYYCQQYSKLPRTFGGGTKVEIKRTVAAPSVFIFPPSDEQLKSGTASVVCLLNNFYPREAKVQWKVDNALQSGNSQESVTEQDSKDSTYSLSSTLTLSKADYEKHKVYACEVTHQGLSSPVTKSFNRGEC | 21
Antibody-drug conjugate 13 (ADC13) (antibody, human IgG1, kappa, MC-VC-PAB-MMAE on cysteine sulfhydryls after TCEP reduction of hinge disulfide bonds; positions not given; DAR 7.9) heavy: QVQLVQSGAEVKKPGSSVKVSCKASGYTFSNYWIEWVRQAPGQGLEWIGEILPGTGRTIYNEKFKGRVTFTADISTSTAYMELSSLRSEDTAVYYCARRDYYGNFYYAMDYWGQGTLVTVSS[human IgG1 constant region not spelt out] light: DIQMTQSPSSLSASVGDRVTITCSASQGINNYLNWYQQKPGKAPKLLIYYTSTLQSGVPSRFSGSGSGTDYTLTISSLQPEDFATYYCQQYSKLPRTFGGGTKVEIKRTVAAPSVFIFPPSDEQLKSGTASVVCLLNNFYPREAKVQWKVDNALQSGNSQESVTEQDSKDSTYSLSSTLTLSKADYEKHKVYACEVTHQGLSSPVTKSFNRGEC | 40
Antibody-drug conjugate 14 (ADC14) (antibody, human IgG1, kappa, MC-VC-PAB-MMAE on cysteine sulfhydryls after TCEP reduction of hinge disulfide bonds; positions not given; DAR 7.9) heavy: QVQLVQSGAEVKKPGSSVKVSCKASGYTFSNYWIEWVRQAPGQGLEWIGEILPGTGRTIYNEKFKGRVTFTADESTSTAYMELSSLRSEDTAVYYCARRDYYGNFYYAMDYWGQGTLVTVSS[human IgG1 constant region not spelt out] light: DIQMTQSPSSLSASVGDRVTITCSASQGINNYLNWYQQKPGKAPKLLIYYTSTLQSGVPSRFSGSGSGTDYTLTISSLQPEDFATYYCQQYSKLPRTFGGGTKVEIKRTVAAPSVFIFPPSDEQLKSGTASVVCLLNNFYPREAKVQWKVDNALQSGNSQESVTEQDSKDSTYSLSSTLTLSKADYEKHKVYACEVTHQGLSSPVTKSFNRGEC | 57
